The results in this text go back to publication PMC11057083.

Assay [1] deals with T1, cell division cycle 6 (CDC6), endogenous in HeLa cells (human (endogenous in HeLa)) (UniProt Q99741).
T1 sequence: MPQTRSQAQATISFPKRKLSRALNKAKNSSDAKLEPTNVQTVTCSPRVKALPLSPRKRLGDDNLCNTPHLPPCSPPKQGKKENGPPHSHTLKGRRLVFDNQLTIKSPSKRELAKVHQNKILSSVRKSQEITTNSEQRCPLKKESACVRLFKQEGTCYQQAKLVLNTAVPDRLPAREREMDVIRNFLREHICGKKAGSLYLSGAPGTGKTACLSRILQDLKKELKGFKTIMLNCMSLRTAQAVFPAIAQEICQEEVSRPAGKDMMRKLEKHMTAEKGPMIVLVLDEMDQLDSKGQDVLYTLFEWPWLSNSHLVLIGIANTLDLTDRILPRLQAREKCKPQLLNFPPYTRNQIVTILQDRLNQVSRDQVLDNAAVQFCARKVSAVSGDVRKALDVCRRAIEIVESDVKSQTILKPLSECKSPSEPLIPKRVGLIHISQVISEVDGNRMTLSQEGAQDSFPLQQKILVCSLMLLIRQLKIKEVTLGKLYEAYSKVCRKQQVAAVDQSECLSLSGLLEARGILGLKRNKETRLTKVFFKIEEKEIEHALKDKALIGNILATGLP
Put plainly: co-IP; endogenous proteins; HeLa cells synchronized at the G1/S boundary by a double-thymidine block, lysates collected at time points after release, IP with anti-CDC6 antibody, Western blot. For orientation: In western blotting, separated proteins are transferred to a membrane and probed.

In assay [2] the target is T2, cell division cycle 6 (CDC6), endogenous in HEK293 cells (human (endogenous in HEK293)) (UniProt Q99741).
T2 sequence: T1 sequence
Put plainly: co-IP; endogenous proteins; HEK293 whole-cell lysates, IP with control IgG, anti-OTUD6A or anti-CDC6 antibody, Western blot.

Another assay concerns the target T3, HA-CDC6 (UniProt Q99741).
T3 sequence: T1 sequence
The assay is described as follows: co-IP; HEK293 cells transfected with Flag-OTUD6A constructs and HA-CDC6 for 24 h; whole-cell lysates, IP with anti-Flag antibody (reverse IP in Supplementary Fig. 2e, f), Western blot; in one panel cells treated with HU (2.5 mM) or DMSO for 24 h.

The target in another assay is T4, HA-YFP-C terminus-CDC6 (UniProt Q99741).
T4 sequence: T1 sequence
The assay is described as follows: split reporter; BiFC with YN-OTUD6A and YC-CDC6 in cells, confocal images.

Assay [3] concerns the target T5, OTU domain-containing 6A (OTUD6A), endogenous in HEK293 cells (human (endogenous in HEK293)) (UniProt Q7L8S5).
T5 sequence: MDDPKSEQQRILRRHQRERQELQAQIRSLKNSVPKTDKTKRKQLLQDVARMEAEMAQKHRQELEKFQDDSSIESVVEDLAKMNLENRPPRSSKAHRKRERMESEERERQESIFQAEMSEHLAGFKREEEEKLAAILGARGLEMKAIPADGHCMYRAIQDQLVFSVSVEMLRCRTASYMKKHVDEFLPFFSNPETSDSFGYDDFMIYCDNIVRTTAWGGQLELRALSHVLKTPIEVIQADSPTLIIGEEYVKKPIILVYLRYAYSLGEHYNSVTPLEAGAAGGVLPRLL
Put plainly: co-IP; endogenous proteins; HEK293 whole-cell lysates, IP with control IgG, anti-OTUD6A or anti-CDC6 antibody, Western blot.

In assay [4] the target is T6, Flag-tagged OTUD6A-C-terminal (129-288 aa) (UniProt Q7L8S5).
T6 sequence: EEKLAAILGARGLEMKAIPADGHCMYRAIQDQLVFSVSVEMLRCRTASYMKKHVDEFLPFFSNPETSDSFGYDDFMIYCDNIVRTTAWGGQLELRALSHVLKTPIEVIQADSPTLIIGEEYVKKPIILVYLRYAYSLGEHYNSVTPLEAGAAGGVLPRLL
The assay is described as follows: co-IP; HEK293 cells transfected with Flag-OTUD6A constructs and HA-CDC6 for 24 h; whole-cell lysates, IP with anti-Flag antibody (reverse IP in Supplementary Fig. 2e, f), Western blot; in one panel cells treated with HU (2.5 mM) or DMSO for 24 h.

Assay [5] addresses T7, Flag-tagged OTUD6A-N-terminal (1-145 aa) (UniProt Q7L8S5).
T7 sequence: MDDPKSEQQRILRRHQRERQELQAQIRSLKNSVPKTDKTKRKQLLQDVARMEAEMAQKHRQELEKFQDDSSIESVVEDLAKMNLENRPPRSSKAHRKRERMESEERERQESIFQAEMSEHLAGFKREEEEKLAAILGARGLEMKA
The assay is described as above.

The target of a further assay is T8, Flag-OTUD6A (human) (UniProt Q7L8S5).
T8 sequence: T5 sequence
Described as above.

Assay [6] has as its target T9, GST-tagged OTUD6A-N-terminal (1-145 aa) (UniProt Q7L8S5).
T9 sequence: T7 sequence
The assay is described as follows: pull-down; GST pull-down with GST-tagged OTUD6A constructs; Coomassie brilliant blue staining of the GST proteins; source of CDC6 not shown.

The target of assay [7] is T10, GST-tagged full-length OTUD6A (UniProt Q7L8S5).
T10 sequence: T5 sequence
The assay is described as above.

No constants are given. Whether binding was seen depends on the method and setting. In cells and extracts the contact can be indirect. Some results given as binding are weak or reduced against the parent protein; the word gives no strength. For some of these results: Tags and fused reporters may be left off the sequences shown.

B1: OTU domain-containing 6A (OTUD6A), endogenous in HeLa cells (enzyme, UniProt Q7L8S5 1-288)
chain: T5 sequence
Regarding B1, the binding entry in assay [1] is recorded as “binds”.

B2: OTU domain-containing 6A (OTUD6A), endogenous in HEK293 cells (enzyme, UniProt Q7L8S5 1-288)
chain: T5 sequence
Take B2: in assay [2], the binding entry is on record as “binds”.

B3: Flag-OTUD6A (enzyme, UniProt Q7L8S5 1-288)
chain: T5 sequence
As for B3, the binding result with HA-CDC6 is reported as “binds”.

B4: Flag-YFP-N terminus-OTUD6A (enzyme, UniProt Q7L8S5 1-288)
chain: T5 sequence
On to B4, for which, in the assay with HA-YFP-C terminus-CDC6, the binding result is listed as “binds”.

B5: cell division cycle 6 (CDC6), endogenous in HEK293 cells (protein, UniProt Q99741 1-560)
chain: T1 sequence
As for B5, the binding result in assay [3] is given as “binds”.

B6: HA-CDC6 (protein, UniProt Q99741 1-560)
chain: T1 sequence
As to B6, the binding result is listed as “no binding” in assay [4], “binds” in assay [5] and “binds” with Flag-OTUD6A (human).

B7: CDC6 of the GST pull-down assay (protein, UniProt Q99741 1-560)
chain: T1 sequence
Consider B7, for which the binding result in assay [6] and in [7] was “binds” each time.
